Data: patent US20230120736A1, “ANTI-CD98 ANTIBODIES AND ANTIBODY DRUG CONJUGATES” (AbbVie Inc., priority 2016, published 2023)

How the values were obtained:
[1] = DAR determination by LC-MS
Description: LC-MS analysis was performed using an Agilent 1100 HPLC system interfaced to an Agilent LC/MSD TOF 6220 ESI mass spectrometer. The ADC was reduced with 5 mM (final concentration) BOND-BREAKER TCEP solution (Thermo Scientific, Rockford, Ill.), loaded onto a Protein Microtrap (Michrom Bioresorces, Auburn, Calif.) desalting cartridge, and eluted with a gradient of 10% B to 75% B in 0.2 minutes at ambient temperature. Mobile phase A was H2O with 0.1% formic acid (FA), mobile phase B was acetonitrile with 0.1% FA, and the flow rate was 0.2 ml/min. Electrospray-ionization time-of-flight mass spectra of the co-eluting light and heavy chains were acquired using Agilent MassHunter™ acquisition software. The extracted intensity vs. m/z spectrum was deconvoluted using the Maximum Entropy feature of MassHunter software to determine the mass of each reduced antibody fragment. DAR was calculated from the deconvoluted spectrum by summing intensities of the naked and modified peaks for the light chain and heavy chain, normalized by multiplying intensity by the number of drugs attached. The summed, normalized intensities were divided by the sum of the intensities, and the summing results for two light chains and two heavy chains produced a final average DAR value for the full ADC.

[2] = Size exclusion chromatography, % aggregate fraction of ADC; assay type: physicochemical; conditions: ADCs of Table 27
Description: Size exclusion chromatography was performed using a Shodex KW802.5 column in 0.2M potassium phosphate pH 6.2 with 0.25 mM potassium chloride and 15% IPA at a flow rate of 0.75 ml/min. The peak area absorbance at 280 nm was determined for each of the high molecular weight and monomeric eluents by integration of the area under the curve. The % aggregate fraction of the conjugate sample was determined by dividing the peak area absorbance at 280 nm for the high molecular weight eluent by the sum of the peak area absorbances at […] of the high molecular weight and monomeric eluents multiplied by 100%.

[3] = system: NCI-H146 (human small cell lung cancer) xenograft; assay: NCI-H146 xenograft tumor growth inhibition; assay type: in vivo, mouse; conditions: single dose 10 mg/kg/day QDx1/IP
Description: The in vivo efficacy of anti-CD98 hybridoma mAb conjugates were tested using Ab3-CZ and Ab5-CZ as examples in NCI-H146 (human small cell lung cancer) xenograft model. […] The cells were cultured as monolayers in RPMI-1640 culture media (Invitrogen, Carlsbad, Calif.) that was supplemented with 10% Fetal Bovine Serum (FBS, Hyclone, Logan, Utah). To generate xenografts, 5×10^6 (NCI-H146) viable cells were inoculated subcutaneously into the right flank of immune deficient female SCID-bg mice (Charles River Laboratories, Wilmington, Mass.). The injection volume was 0.2 mL and composed of Matrigel (BD, Franklin Lakes, N.J.). Tumors were size matched at approximately 212 mm^3. Antibodies and conjugates were formulated in phosphate buffered saline, pH 7.2 and injected intraperitoneally. […] Therapy began within 24 hours after size matching of the tumors. Mice weighed approximately 21 g at the onset of therapy. Tumor volume was estimated two to three times weekly. Measurements of the length (L) and width (W) of the tumor were taken via electronic caliper and the volume was calculated according to the following equation: V=L×W^2/2. Mice were euthanized when tumor volume reached 3,000 mm^3 or skin ulcerations occurred. Eight mice were housed per cage. Food and water were available ad libitum. Mice were acclimated to the animal facilities for a period of at least one week prior to commencement of experiments. Animals were tested in the light phase of a 12-hour light: 12-hour dark schedule (lights on at 06:00 hours). Anti-CD98 conjugates (10 mg/kg) were administered as a single dose (QDx1) intraperitoneally. A human IgG control antibody (MSL109, a humanized IgG1 antibody that binds to cytomegalovirus (CMV) glycoprotein H) was used as a negative control agent.
To refer to efficacy of therapeutic agents, parameters of amplitude (TGImax), durability (TGD) and response frequency (CR, PR, OR) of therapeutic response are used. The efficacy of inhibition of NCI-H146 xenografts growth with CD98-targeted ADCs is illustrated by Table 6, below. In the tables, to refer to efficacy, parameters of amplitude (TGImax) and durability (TGD) of therapeutic response are used. TGImax is the maximum tumor growth inhibition during the experiment. Tumor growth inhibition is calculated by 100*(1−Tv/Cv) where Tv and Cv are the mean tumor volumes of the treated and control groups, respectively. TGD or tumor growth delay is the extended time of a treated tumor needed to reach a volume of 1 cm^3 relative to the control group. TGD is calculated by 100*(Tt/Ct−1) where Tt and Ct are the median time periods to reach 1 cm^3 of the treated and control groups, respectively. Distribution of the response amplitude in a specific group is given by the frequency of complete responders (CR), partial responders (PR), and overall responders (OR). CR is the percentage of mice within a group with a tumor burden of 25 mm^3 for at least three measurements. PR is the percentage of mice within a group with a tumor burden larger than 25 mm^3 but less than one-half of the volume at onset of treatment for at least three measurements. OR is the sum of CR and PR.
The in vivo anti-tumor efficacy of selected humanized anti-CD98 mAb conjugates were tested in NCI-H146 (human small cell lung cancer) xenograft model, as described in Example 6. Tumor growth inhibition was reported as TGImax in Table 28.

[4] = ADCs of Table 28 (NCI-H146 xenograft study)

B1: CD98 (CL-huAb104)-CZ (conjugate)
heavy: EVQLVESGGGLVQPGGSLRLSCATSGFTFIDYYMSWVRQAPGKGLEWLGFIRNKAYGYTTEYSASVKGRFTISRDNSKSILYLQMNSLKTEDTAVYYCTRDRPAWFVYWGQGTLVTVSSASTKGPSVFPLAPSSKSTSGGTAALGCLVKDYFPEPVTVSWNSGALTSGVHTFPAVLQSSGLYSLSSVVTVPSSSLGTQTYICNVNHKPSNTKVDKKV[omitted - human IgG1 Fc with changes]
light: DIVMTQTPLSLPVTPGEPASISCKSSQSLLYSSNQKNYLAWYLQKPGQSPQLLIYWASTRESGVPDRFSGSGSGTDFTLKISRVEAEDVGVYYCQQYYSYPYTFGGGTKVEIKRTVAAPSVFIFPPSDEQLKSGTASVVCLLNNFYPREAKVQWKVDNALQSGNSQESVTEQDSKDSTYSLSSTLTLSKADYEKHKVYACEVTHQGLSSPVTKSFNRGEC
With B1 the “DAR by MS” value ([1]; ADCs of Table 27) was 3.3, the “DAR by MS” value [1, 4] was 2.6 and the “% agg by SEC” value [2] was 12.7%. For the same molecule, the TGImax [3] was 90%.

B2: CD98 (CL-huAb110)-CZ (conjugate)
heavy: EVQLVQSGAEVKKPGASVKVSCKASGFTFSDYTMAWVRQAPGQGLEWVATIIYDARGTYYRDAVKGRFTITRDNSTSTLYLELSSLRSEDTAVYYCARQSDDTYYYWGYFDYWGQGTMVTVSSASTKGPSVFPLAPSSKSTSGGTAALGCLVKDYFPEPVTVSWNSGALTSGVHTFPAVLQSSGLYSLSSVVTVPSSSLGTQTYICNVNHKPSNTKVDKKV[omitted - human IgG1 Fc with changes]
light: DIVMTQTPLSLPVTPGEPASINCKSSQSLLFSGNQKNYLAWYLQKPGQSPQLLIYWASTRQSGVPDRFSGSGSGTDFTLKISRVEAEDVGIYYCQQYYSSPYTFGQGTKLEIKRTVAAPSVFIFPPSDEQLKSGTASVVCLLNNFYPREAKVQWKVDNALQSGNSQESVTEQDSKDSTYSLSSTLTLSKADYEKHKVYACEVTHQGLSSPVTKSFNRGEC
With B2 the “DAR by MS” value ([1]; ADCs of Table 27) was 4.1, the “DAR by MS” value [1, 4] was 2.9 and the “% agg by SEC” value [2] was 4.9%. It also gave a TGImax [3] of 92%.

B3: CD98 (CL-huAb102)-TX (conjugate)
heavy: EVQLVESGGGLVQPGGSLRLSCATSGFTFIDYYMSWVRQAPGKGLEWLGFIRNKANRYTTEYSASVKGRFTISRDNSKSILYLQMNSLKTEDTAVYYCTRDRPAWFVYWGQGTLVTVSSASTKGPSVFPLAPSSKSTSGGTAALGCLVKDYFPEPVTVSWNSGALTSGVHTFPAVLQSSGLYSLSSVVTVPSSSLGTQTYICNVNHKPSNTKVDKKV[omitted - human IgG1 Fc with changes]
light: DIVMTQTPLSLPVTPGEPASISCKSSQSLLYSSNQKNYLAWYLQKPGQSPQLLIYWASTRESGVPDRFSGSGSGTDFTLKISRVEAEDVGVYYCQQYYSYPYTFGGGTKVEIKRTVAAPSVFIFPPSDEQLKSGTASVVCLLNNFYPREAKVQWKVDNALQSGNSQESVTEQDSKDSTYSLSSTLTLSKADYEKHKVYACEVTHQGLSSPVTKSFNRGEC
In the case of B3, the “DAR by MS” value ([1]; ADCs of Table 27) is reported as 2.0, the “DAR by MS” value [1, 4] is reported as 1.8 and the “% agg by SEC” value [2] is reported as 1.0%. For the same molecule, the TGImax [3] was 92%.

B4: CD98 (CL-huAb102)-CZ (conjugate)
heavy: EVQLVESGGGLVQPGGSLRLSCATSGFTFIDYYMSWVRQAPGKGLEWLGFIRNKANRYTTEYSASVKGRFTISRDNSKSILYLQMNSLKTEDTAVYYCTRDRPAWFVYWGQGTLVTVSSASTKGPSVFPLAPSSKSTSGGTAALGCLVKDYFPEPVTVSWNSGALTSGVHTFPAVLQSSGLYSLSSVVTVPSSSLGTQTYICNVNHKPSNTKVDKKV[omitted - human IgG1 Fc with changes]
light: DIVMTQTPLSLPVTPGEPASISCKSSQSLLYSSNQKNYLAWYLQKPGQSPQLLIYWASTRESGVPDRFSGSGSGTDFTLKISRVEAEDVGVYYCQQYYSYPYTFGGGTKVEIKRTVAAPSVFIFPPSDEQLKSGTASVVCLLNNFYPREAKVQWKVDNALQSGNSQESVTEQDSKDSTYSLSSTLTLSKADYEKHKVYACEVTHQGLSSPVTKSFNRGEC
For B4, the “DAR by MS” value [1, 4] was 2.9 and the TGImax [3] was 93%.

B5: CD98 (CL-huAb102)-WD (conjugate)
heavy: EVQLVESGGGLVQPGGSLRLSCATSGFTFIDYYMSWVRQAPGKGLEWLGFIRNKANRYTTEYSASVKGRFTISRDNSKSILYLQMNSLKTEDTAVYYCTRDRPAWFVYWGQGTLVTVSSASTKGPSVFPLAPSSKSTSGGTAALGCLVKDYFPEPVTVSWNSGALTSGVHTFPAVLQSSGLYSLSSVVTVPSSSLGTQTYICNVNHKPSNTKVDKKV[omitted - human IgG1 Fc with changes]
light: DIVMTQTPLSLPVTPGEPASISCKSSQSLLYSSNQKNYLAWYLQKPGQSPQLLIYWASTRESGVPDRFSGSGSGTDFTLKISRVEAEDVGVYYCQQYYSYPYTFGGGTKVEIKRTVAAPSVFIFPPSDEQLKSGTASVVCLLNNFYPREAKVQWKVDNALQSGNSQESVTEQDSKDSTYSLSSTLTLSKADYEKHKVYACEVTHQGLSSPVTKSFNRGEC
In the case of B5, the “DAR by MS” value ([1]; ADCs of Table 27) is reported as 1.4 and the “% agg by SEC” value [2] is reported as 0%.

B6: CD98 (CL-huAb110)-WD (conjugate)
heavy: EVQLVQSGAEVKKPGASVKVSCKASGFTFSDYTMAWVRQAPGQGLEWVATIIYDARGTYYRDAVKGRFTITRDNSTSTLYLELSSLRSEDTAVYYCARQSDDTYYYWGYFDYWGQGTMVTVSSASTKGPSVFPLAPSSKSTSGGTAALGCLVKDYFPEPVTVSWNSGALTSGVHTFPAVLQSSGLYSLSSVVTVPSSSLGTQTYICNVNHKPSNTKVDKKV[omitted - human IgG1 Fc with changes]
light: DIVMTQTPLSLPVTPGEPASINCKSSQSLLFSGNQKNYLAWYLQKPGQSPQLLIYWASTRQSGVPDRFSGSGSGTDFTLKISRVEAEDVGIYYCQQYYSSPYTFGQGTKLEIKRTVAAPSVFIFPPSDEQLKSGTASVVCLLNNFYPREAKVQWKVDNALQSGNSQESVTEQDSKDSTYSLSSTLTLSKADYEKHKVYACEVTHQGLSSPVTKSFNRGEC
In the case of B6, the “DAR by MS” value ([1]; ADCs of Table 27) is reported as 1.8 and the “% agg by SEC” value [2] is reported as 4.8%.

B7: CD98 (CL-huAb108)-CZ (conjugate)
heavy: EVQLVQSGAEVKKPGASVKVSCKASGFTFSDYTMAWVRQAPGQGLEWVATIIYSGRGTYYRDAVKGRFTITRDNSTSTLYLELSSLRSEDTAVYYCARQSDDTYYYWGYFDYWGQGTMVTVSSASTKGPSVFPLAPSSKSTSGGTAALGCLVKDYFPEPVTVSWNSGALTSGVHTFPAVLQSSGLYSLSSVVTVPSSSLGTQTYICNVNHKPSNTKVDKKV[omitted - human IgG1 Fc with changes]
light: DIVMTQTPLSLPVTPGEPASINCKSSQSLLFSGNQKNYLAWYLQKPGQSPQLLIYWASTRQSGVPDRFSGSGSGTDFTLKISRVEAEDVGIYYCQQYYDVPYTFGQGTKLEIKRTVAAPSVFIFPPSDEQLKSGTASVVCLLNNFYPREAKVQWKVDNALQSGNSQESVTEQDSKDSTYSLSSTLTLSKADYEKHKVYACEVTHQGLSSPVTKSFNRGEC
In the case of B7, the “DAR by MS” value ([1]; ADCs of Table 27) is reported as 2.9, the “DAR by MS” value [1, 4] is reported as 3.2 and the “% agg by SEC” value [2] is reported as 4.8%. For the same molecule, the TGImax [3] was 93%.
